Measurements taken from PubChem BioAssay AID504832 (National Center for Advancing Translational Sciences (NCATS), 2011).
The whole screen tested about 310,000 compounds, of which about 18,000 (5.8%) were called active. The shares of active, inactive and inconclusive entries below differ from those in the screen. The call rests on the fitted dose curve; in most records, active means well fitted inhibition curve with a large enough effect; inconclusive means small, poorly fitted or top-dose-only effect, or another doubt; inactive means no such curve, though single readings can be large or run the other way. Potencies of inconclusive entries are left out as doubtful fits.

experiment: Primary qHTS for delayed death inhibitors of the malarial parasite plastid, 48 hour incubation; settings: P. falciparum luciferase growth in erythrocytes; series mostly up to 28.7 µM; activity change, negative = inhibition: at the top concentration
In short: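 Firefly luciferase activity from engineered P. falciparum reports growth; inhibitors lower the luminescent signal. Cultures contained 2% hematocrit erythrocytes at 0.1% final parasitemia.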
On the % scale 0 is the no-effect control and ±100 the full control effect; potency means the concentration at half of the fitted maximal effect; tags describe the fitted curve by direction and shape.

Structure (SMILES) | activity change, negative = inhibition | Potency
CCN(CC(=O)Nc1c(F)cccc1F)C(=O)CNC(=O)c1ccc(Br)o1 | inactive: 13.6% | –
O=C1NCCN(Cc2ccc(Cl)c(F)c2)C1CC(=O)N1CCCO1 (centres undefined) | inactive: -15.4% | –
O=C(COC(=O)c1ccc(NS(=O)(=O)c2cccs2)cc1O)Nc1nc2ccccc2s1 | inactive: 46.1% | –
c1cc2c3c(cccc3c1)NC1(CCCCCC1)N2 | – | inconclusive [inhibitor, partial curve, poor fit]
COC(=O)c1ccc(OCC(O)CN2CCc3cc(OC)c(OC)cc3C2c2ccccc2)cc1 (centres undefined) | – | inconclusive [inhibitor, partial curve]
CS(=O)(=O)Oc1ccc(/C=N/NC(=O)c2ccncc2)cc1 | inactive: 0.293% | –
Cc1n[nH]c(=O)nc1N/N=C/c1ccco1 | – | inconclusive [inhibitor, full curve]
COc1ccccc1C(O)(C(=O)N(NC(C)=O)c1ccccc1)c1ccccc1OC | inactive: -13.3% | –
O=c1[nH]c(CCl)nc2cc(-c3ccc(F)cc3)sc12 | – | inconclusive [inhibitor, single point]
O=C1Nc2cc(C(=O)NCC3CCCO3)ccc2S/C1=C/c1ccccc1F (centres undefined) | – | inconclusive [inhibitor, single point]
CCCc1[nH]n(-c2nc3ccccc3s2)c(=O)c1C=NCC(C)C | – | inconclusive [inhibitor, single point]
O=C(c1ccc(S(=O)(=O)Nc2ccccc2Cl)cc1)N1CCOCC1 | – | inconclusive [inhibitor, single point]
O=C(OCn1nnc2ccccc2c1=O)c1cccc(S(=O)(=O)N2CCOCC2)c1 | – | inconclusive [inhibitor, single point]
O=C(NCc1ccc(F)cc1)c1ccc2c(=O)n3c(nc2c1)CCCCC3 | – | inconclusive [inhibitor, partial curve, poor fit]
CC(=O)c1ccccc1NC(=O)COC(=O)Cc1cccc(C(F)(F)F)c1 | inactive: -14.7% | –
CN(c1cc(=O)n2ccccc2n1)C1CCCCC1 | – | inconclusive [inhibitor, partial curve, poor fit]
Cc1cc(C)c(C)c(S(=O)(=O)N2CCC(C(=O)N3CCCC3)CC2)c1C | – | active: 11.7 µM
CCN(CC)c1ccc2cc(S(=O)(=O)c3ccc(C)cc3)c(=O)oc2c1 | – | inconclusive [inhibitor, partial curve, poor fit]
N#C/C(=C\c1ccc(O)c(O)c1)C(=O)NCCc1ccccc1 | – | inconclusive [inhibitor, single point]
